{
  "source": "paper PMC4336329",
  "about": "(PLoS ONE, 2015)",
  "note": "Out of some 310,000 compounds screened, about 2,200 (0.71%) showed an effect of 50% or more. The effect is printed as a negative number. Some of the results follow.",
  "data": [
    {"target": "human ether-à-go-go-related gene (hERG) potassium channel (human, UniProt Q12809)", "sequence (Q12809 whole entry, looked up)": "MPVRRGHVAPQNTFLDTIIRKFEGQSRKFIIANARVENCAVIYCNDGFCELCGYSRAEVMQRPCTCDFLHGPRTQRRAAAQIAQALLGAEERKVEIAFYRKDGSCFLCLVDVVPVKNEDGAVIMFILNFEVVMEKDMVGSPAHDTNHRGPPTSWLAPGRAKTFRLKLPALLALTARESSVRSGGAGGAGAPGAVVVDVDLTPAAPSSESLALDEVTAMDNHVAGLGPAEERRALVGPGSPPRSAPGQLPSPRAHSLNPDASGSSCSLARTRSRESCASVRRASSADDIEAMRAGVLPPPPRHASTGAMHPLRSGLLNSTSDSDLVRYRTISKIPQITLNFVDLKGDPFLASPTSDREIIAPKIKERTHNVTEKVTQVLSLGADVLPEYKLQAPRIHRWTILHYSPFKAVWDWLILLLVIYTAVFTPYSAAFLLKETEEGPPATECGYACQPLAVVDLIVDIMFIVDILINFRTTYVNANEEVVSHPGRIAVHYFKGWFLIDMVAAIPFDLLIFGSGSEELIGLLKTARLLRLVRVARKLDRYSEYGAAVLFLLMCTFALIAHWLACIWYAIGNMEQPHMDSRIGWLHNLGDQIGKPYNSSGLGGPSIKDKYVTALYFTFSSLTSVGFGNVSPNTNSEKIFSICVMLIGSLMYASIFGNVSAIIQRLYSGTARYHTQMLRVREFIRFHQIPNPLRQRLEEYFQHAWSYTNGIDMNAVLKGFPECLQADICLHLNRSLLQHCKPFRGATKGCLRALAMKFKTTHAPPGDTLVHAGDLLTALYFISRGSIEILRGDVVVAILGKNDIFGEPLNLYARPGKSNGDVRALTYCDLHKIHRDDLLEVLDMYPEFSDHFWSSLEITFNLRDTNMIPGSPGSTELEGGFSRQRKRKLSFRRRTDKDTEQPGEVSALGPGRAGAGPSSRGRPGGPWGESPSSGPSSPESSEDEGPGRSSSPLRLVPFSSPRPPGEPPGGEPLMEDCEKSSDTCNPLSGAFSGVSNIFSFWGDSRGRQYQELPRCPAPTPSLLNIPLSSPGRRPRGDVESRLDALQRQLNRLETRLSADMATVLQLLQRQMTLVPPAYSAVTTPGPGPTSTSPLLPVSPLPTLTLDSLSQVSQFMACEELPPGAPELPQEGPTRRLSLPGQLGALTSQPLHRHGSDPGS", "experiment": "primary screen, population patch clamp on CHO cells stably expressing hERG", "units": {"hERG current change (%, negative = inhibition) at 1uM": "%"}, "values": [
      {"smiles": "O=C(c1ccco1)N1CCN(C(=O)c2ccccc2[N+](=O)[O-])CC1", "hERG current change (%, negative = inhibition) at 1uM": 12.7},
      {"smiles": "CS(=O)(=O)c1ccc(C(=O)Nc2cc(S(C)(=O)=O)ccc2Cl)cc1", "hERG current change (%, negative = inhibition) at 1uM": 13.1},
      {"smiles": "Cc1cccc(Cn2nnc3c2C(=O)c2ccccc2C3=O)c1", "hERG current change (%, negative = inhibition) at 1uM": 21.5},
      {"smiles": "Cc1nn(C(C)(C)C)c(NC(=O)c2ccc(Cl)cc2)c1Br", "hERG current change (%, negative = inhibition) at 1uM": 9.25},
      {"smiles": "Cc1nccn1CC(=O)N/N=C/c1cccc(O)c1", "hERG current change (%, negative = inhibition) at 1uM": 20.6},
      {"smiles": "Cc1ccc(NC(=O)c2ccc(Cl)c(S(=O)(=O)NCC3CCCO3)c2)c(O)c1", "note": "(stereo not drawn)", "hERG current change (%, negative = inhibition) at 1uM": 9.14},
      {"smiles": "COC(=O)CSC(=S)N1CCCC(C)C1", "note": "(stereo not drawn)", "hERG current change (%, negative = inhibition) at 1uM": 6.18},
      {"smiles": "COc1ccc(OC)c(NC(=O)Nc2cccc3ccccc23)c1", "hERG current change (%, negative = inhibition) at 1uM": 9.59},
      {"smiles": "CCn1c2ccccc2c2nnc(SCC(=O)Nc3ccc4c(c3)OCO4)nc21", "hERG current change (%, negative = inhibition) at 1uM": 10.8},
      {"smiles": "O=C(/C=C/c1ccccc1)NCCSCc1ccccc1", "hERG current change (%, negative = inhibition) at 1uM": 5.07},
      {"smiles": "Cc1ccc(Nc2nc(N)c([N+](=O)[O-])c(N3CCOCC3)n2)cc1", "hERG current change (%, negative = inhibition) at 1uM": 5.55},
      {"smiles": "Cc1cccc(OC(=O)c2ccncc2)c1C", "hERG current change (%, negative = inhibition) at 1uM": 10.5},
      {"smiles": "C=CCOC(=O)C1=C(C)NC(SCC(=O)NC(=O)OCC)=C(C#N)C1c1cccnc1", "note": "(stereo not drawn)", "hERG current change (%, negative = inhibition) at 1uM": 7.17},
      {"smiles": "CC1(C)Cc2c(sc3nc(N/N=C/c4ccccc4)[nH]c(=O)c23)CO1", "hERG current change (%, negative = inhibition) at 1uM": 8.46},
      {"smiles": "COc1ccc(CN2C(=O)c3cccnc3C2=O)cc1S(=O)(=O)NCc1ccc(C)cc1", "hERG current change (%, negative = inhibition) at 1uM": 12.6},
      {"smiles": "N#Cc1c(NC(=O)CSc2nnc(-c3ccco3)n2-c2ccccc2)sc2c1CCC2", "hERG current change (%, negative = inhibition) at 1uM": 0.511},
      {"smiles": "Clc1ccc(COc2ccccn2)c(Cl)c1", "hERG current change (%, negative = inhibition) at 1uM": 7.33},
      {"smiles": "CCOC(=O)CC1C(=O)NCCN1C(=O)c1ccc(Cl)cc1", "note": "(stereo not drawn)", "hERG current change (%, negative = inhibition) at 1uM": 9.74},
      {"smiles": "Cc1ccc(S(=O)(=O)N(CC(=O)Nc2cccnc2)c2ccc(Br)cc2)cc1", "hERG current change (%, negative = inhibition) at 1uM": -6.71},
      {"smiles": "COC(=O)CNC(=O)COC(=O)c1ccc(OC)c([N+](=O)[O-])c1", "hERG current change (%, negative = inhibition) at 1uM": 14.4},
      {"smiles": "Cc1ccc2oc(=O)c3cc(C(=O)N4CCN(C(=O)c5ccco5)CC4)sc3c2c1", "hERG current change (%, negative = inhibition) at 1uM": -17.4},
      {"smiles": "C[C@H](NC(=O)c1nc[nH]c1C(=O)N1CCN(C(=O)OC(C)(C)C)CC1)C(=O)OCc1ccccc1", "hERG current change (%, negative = inhibition) at 1uM": -0.216},
      {"smiles": "CCN1CCN(CCCNC(=O)CCCn2nc(C)c3sc4ccccc4c3c2=O)CC1", "hERG current change (%, negative = inhibition) at 1uM": 17.4},
      {"smiles": "COCCSc1nnc(NC(=O)Cc2ccc(OC)cc2)s1", "hERG current change (%, negative = inhibition) at 1uM": 13.7},
      {"smiles": "COc1ccc(-c2noc(C(C)n3nc(C)c([N+](=O)[O-])c3C)n2)cc1OC", "note": "(stereo not drawn)", "hERG current change (%, negative = inhibition) at 1uM": 8.63},
      {"smiles": "CC(C)c1ccc(O)c(NC(=O)c2cncc(Br)c2)c1", "hERG current change (%, negative = inhibition) at 1uM": 0.77},
      {"smiles": "COC(=O)Nc1nnc(/C=C/c2ccc(OC)cc2)s1", "hERG current change (%, negative = inhibition) at 1uM": -1.57},
      {"smiles": "Cc1ccc(NC(=O)CN(C)C(=O)c2ccc(NS(=O)(=O)c3ccc4[nH]c(=O)[nH]c4c3)cc2)cc1", "hERG current change (%, negative = inhibition) at 1uM": -4.52},
      {"smiles": "Cc1cc(C)nc(SCc2nnc(SCC#N)n2-c2cccc(Cl)c2)n1", "hERG current change (%, negative = inhibition) at 1uM": 3.2},
      {"smiles": "O=C(COC(=O)c1cccc(Br)c1)Nc1cccc2c1C(=O)c1ccccc1C2=O", "hERG current change (%, negative = inhibition) at 1uM": 8.3},
      {"smiles": "COc1ccccc1-n1c(SCC(=O)NC2CCCC2)nc2cccnc21", "hERG current change (%, negative = inhibition) at 1uM": 8.49},
      {"smiles": "CCCOc1ccc(CC(=O)NNC(=S)Nc2ccccc2)cc1Br", "hERG current change (%, negative = inhibition) at 1uM": 12.5},
      {"smiles": "CC(=O)c1sc2nc(-c3cccs3)ccc2c1N", "hERG current change (%, negative = inhibition) at 1uM": 14.2},
      {"smiles": "CC1(C)Cc2c(c(=S)nc(-c3ccccc3)n2Cc2cccnc2)CO1", "hERG current change (%, negative = inhibition) at 1uM": 11.3},
      {"smiles": "COc1ccc(CN2CCNC(=O)C2CC(=O)NC2CCOCC2)c(F)c1", "note": "(stereo not drawn)", "hERG current change (%, negative = inhibition) at 1uM": 0.0127},
      {"smiles": "Cc1cc(=O)n(-c2ccc(O)cc2)[nH]1", "hERG current change (%, negative = inhibition) at 1uM": 2.58},
      {"smiles": "CCOC(=O)c1sc(=S)n(-c2ccccc2)c1N", "hERG current change (%, negative = inhibition) at 1uM": -1.76},
      {"smiles": "COc1ccc(CC(NC(C)=O)C(=O)NC2CCN(C(=O)Nc3ccccc3C)CC2)cc1OC", "note": "(stereo not drawn)", "hERG current change (%, negative = inhibition) at 1uM": 11.2},
      {"smiles": "CCSc1nc(-c2ccccc2)cc(=O)[nH]1", "hERG current change (%, negative = inhibition) at 1uM": 7.5},
      {"smiles": "COc1ccccc1CNCCc1ccc(F)cc1.O=C(O)C(=O)O", "hERG current change (%, negative = inhibition) at 1uM": 0.243},
      {"smiles": "CC1(N(O)C=C2C=CC(=O)C=C2)CCCCC1=O", "note": "(stereo not drawn)", "hERG current change (%, negative = inhibition) at 1uM": 2.49},
      {"smiles": "COc1ccccc1C1CC(c2ccco2)=NN1S(C)(=O)=O", "note": "(stereo not drawn)", "hERG current change (%, negative = inhibition) at 1uM": 8.44},
      {"smiles": "CCC(C)(NC(=O)Cc1c[nH]c2ccccc12)C(=O)NC1CCCCC1", "note": "(stereo not drawn)", "hERG current change (%, negative = inhibition) at 1uM": 1.82},
      {"smiles": "Cc1ccc(S(=O)(=O)/N=C(\\Nc2cccc(C)c2)Nc2nc(C)cc(C)n2)cc1", "hERG current change (%, negative = inhibition) at 1uM": 13.8},
      {"smiles": "Br.Cc1ccc(C)c(C(=O)CN2C3=NCCCN3c3ccccc32)c1", "hERG current change (%, negative = inhibition) at 1uM": -43},
      {"smiles": "O=C1NC(=O)N(CCNc2ncc(C(F)(F)F)cc2Cl)C(=O)C1/C=N/OCc1c(F)cccc1Cl", "note": "(stereo not drawn)", "hERG current change (%, negative = inhibition) at 1uM": 7.62},
      {"smiles": "CN(Cc1ccc(F)cc1Cl)S(=O)(=O)c1cccs1", "hERG current change (%, negative = inhibition) at 1uM": 4.71},
      {"smiles": "Cc1nn(-c2ccccc2[N+](=O)[O-])c(=O)c2ccccc12", "hERG current change (%, negative = inhibition) at 1uM": 6.64},
      {"smiles": "O=C(Nc1ncccc1O)c1ccc2c(c1)OCO2", "hERG current change (%, negative = inhibition) at 1uM": 8.92},
      {"smiles": "CCc1nn(CC(=O)NCCCN(C)C2CCCCC2)c(=O)c2cc3occc3n12", "hERG current change (%, negative = inhibition) at 1uM": 2.42},
      {"smiles": "COc1c(CC=C(C)C)c(O)cc2oc(=O)c3c4ccc(O)cc4oc3c12", "hERG current change (%, negative = inhibition) at 1uM": 8.73},
      {"smiles": "NNC(=O)C1COc2cc3ccccc3cc2O1", "note": "(stereo not drawn)", "hERG current change (%, negative = inhibition) at 1uM": 16.3},
      {"smiles": "CCOC(=O)c1ccc(NC(=S)NN)cc1", "hERG current change (%, negative = inhibition) at 1uM": 6.56},
      {"smiles": "Cc1cc(Cn2nc(-c3ccccc3)cc2C(=O)NCc2cccs2)on1", "hERG current change (%, negative = inhibition) at 1uM": 4},
      {"smiles": "Cc1cc2nnc(SCC(=O)Nc3ccc(Cl)cc3)n2c(N)n1", "hERG current change (%, negative = inhibition) at 1uM": 6.02},
      {"smiles": "CCOCC(O)CNC(=O)c1ccc2nc(Cc3ccc(OC)c(OC)c3)oc2c1", "note": "(stereo not drawn)", "hERG current change (%, negative = inhibition) at 1uM": 13.9},
      {"smiles": "CN(C)C(=O)COC(=O)c1ccccc1OCC(=O)Nc1ccc(SC(F)F)cc1", "hERG current change (%, negative = inhibition) at 1uM": -7.39}
    ]}
  ]
}
